Measured values as given in PubChem BioAssay (NCI).
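Method: 48-hour compound exposure of cells in 96-well plates, five concentrations, linear interpolation of endpoints. GI50 is the concentration that inhibits growth by half. TGI is the concentration that stops growth completely.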

Tested on: NCI-H322M lung
Experiment: NCI tumour cell line growth inhibition, 48 h

Work on `CC(C)(O)/C=C/C(=O)[C@](C)(O)[C@H]1[C@H](O)C[C@@]2(C)[C@H]3CC=C4[C@@H](C[C@H](O)C(=O)C4(C)C)[C@]3(C)C(=O)C[C@]12C` yielded a GI50 of 742 nM and a TGI of over 16700 nM.
